These results are taken from patent publication EP0992240A1, “THERAPEUTIC AGENT FOR ERECTION FAILURE” (MOCHIDA PHARMACEUTICAL CO., LTD., priority 1997, dated 1998).

Structures are written as SMILES.

This data set has as its system male wistar rats. Description: Toxicity test, oral administration for four days. The conditions noted are these: 100 mg/kg/day orally for four days.

Turning to `CCNC(=O)COc1cc2c(=O)c(Cc3cccnc3)cn3c4cc(Br)ccc4c(c1)c23` [Example 37, 9-bromo-2-(N-ethylcarbamoylmethyloxy)-5-(3-pyridylmethyl)-4H-pyrido[3,2,1-jk]carbazol-4-one], the “abnormal change in body weight and general symptoms” value was “no abnormal change”.
Turning to `O=c1c(Cc2cccnc2)cn2c3cc(Br)ccc3c3cc(OCCCO)cc1c32` [Example 38, 9-bromo-2-(3-hydroxypropyloxy)-5-(3-pyridylmethyl)-4H-pyrido[3,2,1-jk]carbazol-4-one], the dead case result (until the next morning of the completion of the administration) is “no dead case”.
